{"source": "PubChem BioAssay (Tox21)", "note": "Where “and” joins values, the source holds several entries; their conditions need not be identical. Equal entries are not always repeated. Inconclusive means that the source gave no clear call. Such entries were picked first, then a sample of the others. Potencies beside an inconclusive call are fits to weak or partial responses and may not hold up. Some compounds were tested as several samples or in several runs, with calls that do not always agree. Calls of active or inactive are those of the source. Unless noted, calls come from the whole dose curve; as a rule, active = well fitted curve in the direction sought with a large enough effect in the repeat runs; inconclusive = weak or mixed curves; inactive = no such curve, though single readings can be large; an effect the other way counts as inactive or inconclusive. Potency is the fitted concentration of half-maximal effect; tags give direction and shape of the fitted curve or compound fluorescence and quenching.", "data": [{"assay": "qHTS assay to identify small molecule agonists of the hypoxia (HIF-1) signaling pathway (AID 1224846; active = well fitted activation curve with a large enough effect in the signal ratio in the repeat runs, not every such curve was filed as active; inconclusive = weak or mixed curves; the % refers to the signal ratio)", "conditions": "HRE-bla ME-180 cells, beta-lactamase ratio, 17 h", "outline": "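In ME-180 cells bearing an HRE-bla construct, 17 h treatment with DMSO-dissolved compounds at 37C was followed by CCF4-AM loading to quantify reporter induction.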", "values": [{"smiles": "CCCCCCCCCCCCOS(=O)(=O)O", "Potency": "inactive"}, {"smiles": "O=C1C(I)=CC(=C(c2cc(I)c(O)c(I)c2)c2ccccc2C(=O)O)C=C1I", "Potency": "inconclusive: 21.3 µM [falling, partial curve]"}, {"smiles": "CSCCCN=C=S", "Potency": "inconclusive: 61.6 µM [falling, single point]"}, {"smiles": "CC(C)(c1ccccc1)c1ccc(O)cc1", "Potency": "inconclusive: 54.5 µM [single point] and inconclusive: 54.9 µM"}, {"smiles": "CCCCCCCCCC[N+](C)(C)CCCCCCCCCC", "Potency": "inconclusive: 43.6 µM [falling, partial curve]"}, {"smiles": "C[C@]12Cc3cn[nH]c3C[C@@H]1CC[C@@H]1[C@@H]2CC[C@@]2(C)[C@H]1CC[C@]2(C)O", "Potency": "inconclusive: 26.8 µM [single point]"}, {"smiles": "O=c1c(C2CC(c3ccc(-c4ccc(Br)cc4)cc3)Cc3ccccc32)c(O)sc2ccccc12", "note": "(centres undefined)", "Potency": "inconclusive: 13.4 µM [falling, partial curve]"}, {"smiles": "CCOC(=O)CC(SP(=S)(OC)OC)C(=O)OCC", "note": "(centres undefined)", "Potency": "inconclusive: 49 µM [falling, partial curve]"}, {"smiles": "COc1ccc(C(CN(C)C)C2(O)CCCCC2)cc1", "note": "(centres undefined)", "Potency": "inconclusive: 43.6 µM"}, {"smiles": "Clc1ccc(C(Cl)(Cl)Cl)c(Cl)c1", "Potency": "inconclusive: 62.1 µM [falling, single point]"}, {"smiles": "O=C(O)C(F)(F)C(F)(F)C(F)(F)C(F)(F)C(F)(F)C(F)(F)C(F)(F)F", "Potency": "inconclusive: 7.74 µM [rising, partial curve, poor fit]"}, {"smiles": "CC(=O)O[C@H]1CC[C@@]2(C)C(=CC[C@@H]3[C@@H]2CC[C@]2(C)C(=O)CC[C@@H]32)C1", "Potency": "inconclusive: 61.7 µM [falling, single point]"}, {"smiles": "CCOC(=O)CC(=O)CCl", "Potency": "inconclusive: 54.9 µM [single point]"}, {"smiles": "CNC(C)Cc1ccc2c(c1)OCO2", "note": "(centres undefined)", "Potency": "inconclusive: 67.5 µM"}, {"smiles": "Clc1ccccc1-c1ccccc1Cl", "Potency": "inconclusive: 78.8 µM [single point]"}, {"smiles": "CCCCCCCCCCCCCCC(Br)C(=O)O", "note": "(centres undefined)", "Potency": "inconclusive: 49 µM [partial curve]"}, {"smiles": "C=CC1(C)OC(=O)N(c2cc(Cl)cc(Cl)c2)C1=O", "note": "(centres undefined)", "Potency": "inconclusive: 54.6 µM [single point]"}]}, {"assay": "qHTS assay to identify small molecule agonists of H2AX - cell viability counter screen (AID 1224847; calls by dose curve; note: nearly all actives have a fitted effect of over 30% in size)", "conditions": "CHO-K1 viability, CellTiter-Glo luminescence, 3 h; series mostly up to 154 µM", "outline": "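After overnight plating of 1000 CHO-K1 cells per well, a 15-concentration compound series was applied for 3 hr at 37C. Luminescence from CellTiter-Glo, read following 30 min at room temperature, reflected cell viability.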", "values": [{"smiles": "CCCCCCCCCCCCOS(=O)(=O)O", "Potency": "inconclusive: 125 µM [cytotoxic, partial curve, poor fit]"}, {"smiles": "O=C1C(I)=CC(=C(c2cc(I)c(O)c(I)c2)c2ccccc2C(=O)O)C=C1I", "Potency": "inconclusive: 43.8 µM [rising, partial curve, poor fit]"}, {"smiles": "CCCCCCCCCC(CC)c1ccc(S(=O)(=O)O)cc1", "note": "(centres undefined)", "Potency": "inconclusive: 90.3 µM [cytotoxic, partial curve] and inconclusive: 101 µM [cytotoxic, partial curve] and inconclusive: 39.1 µM [cytotoxic, partial curve]"}, {"smiles": "O=c1oc2ccccc2c(O)c1C(CC(O)c1ccc(-c2ccc(Br)cc2)cc1)c1ccccc1", "note": "(centres undefined)", "Potency": "inconclusive: 120 µM [cytotoxic, single point]"}, {"smiles": "CC(C)(c1ccccc1)c1ccc(O)cc1", "Potency": "active: 112 µM and active: 101 µM"}, {"smiles": "O=c1[nH]c2ccccc2n1C1CCN(CCCC(c2ccc(F)cc2)c2ccc(F)cc2)CC1", "Potency": "inconclusive: 49.2 µM [cytotoxic, partial curve]"}, {"smiles": "CC(=O)O[C@H]1CC[C@@]2(C)C(=CC[C@@H]3[C@@H]2CC[C@]2(C)C(=O)CC[C@@H]32)C1", "Potency": "active: 101 µM"}, {"smiles": "Clc1ccccc1-c1ccccc1Cl", "Potency": "active: 64.5 µM"}, {"smiles": "O=[N+]([O-])c1ccc(Cl)c(Cl)c1Cl", "Potency": "inconclusive: 111 µM [cytotoxic, partial curve, poor fit]"}, {"smiles": "O=C(CCCN1CCC2(CC1)C(=O)NCN2c1ccccc1)c1ccc(F)cc1", "Potency": "inconclusive: 3.48 µM"}]}, {"assay": "qHTS RealTime-Glo MT Cell Viability Assay in HepG2 cells - 24 hour (AID 1224867); note: nearly all actives have a fitted effect of over 50% in size", "conditions": "RealTime-Glo luminescence; series mostly up to 76.8 µM", "outline": "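Cell number in HepG2 cultures estimated from NanoLuc luminescence generated by metabolic reduction of a prosubstrate by living cells. The homogeneous, nonlytic format allowed repeated reads at 0, 8, 16, 24, 32 and 40 h of compound exposure.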", "values": [{"smiles": "O=c1[nH]c2ccccc2n1C1CCN(CCCC(c2ccc(F)cc2)c2ccc(F)cc2)CC1", "Potency": "active: 43.6 µM"}, {"smiles": "O=c1c(C2CC(c3ccc(-c4ccc(Br)cc4)cc3)Cc3ccccc32)c(O)sc2ccccc12", "note": "(centres undefined)", "Potency": "inconclusive: 23.9 µM [falling, partial curve, poor fit]"}, {"smiles": "CCOC(=O)CC(SP(=S)(OC)OC)C(=O)OCC", "note": "(centres undefined)", "Potency": "inconclusive: 54.9 µM [phenotype inactive, single point]"}, {"smiles": "COc1ccc(C(CN(C)C)C2(O)CCCCC2)cc1", "note": "(centres undefined)", "Potency": "inconclusive: 21.9 µM [falling, single point]"}, {"smiles": "O=[N+]([O-])c1cc([N+](=O)[O-])c2ccccc2c1", "Potency": "inconclusive: 21.9 µM [phenotype inactive, single point]"}]}, {"assay": "qHTS RealTime-Glo MT Cell Viability Assay in HEK293 cells - 32 hour (AID 1224868); note: nearly all actives have a fitted effect of over 50% in size", "conditions": "RealTime-Glo luminescence; series mostly up to 76.8 µM", "outline": "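Homogeneous bioluminescent viability format in HEK293 cells (600 cells/well). Following 5 h at 37 C/5% CO2, 23 nL compound was pintooled; the signal was measured repeatedly during 40 h incubation.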", "values": [{"smiles": "CCCCCCCCCCCCOS(=O)(=O)O", "Potency": "inconclusive: 49 µM [cytotoxic, partial curve, poor fit]"}, {"smiles": "c1ccc(Nc2ccc3ccccc3c2)cc1", "Potency": "inconclusive: 48.7 µM [cytotoxic, partial curve] and inconclusive: 49 µM [cytotoxic, partial curve]"}, {"smiles": "CSCCCN=C=S", "Potency": "inconclusive: 24.5 µM [cytotoxic, partial curve, poor fit]"}, {"smiles": "CC(C)(c1ccccc1)c1ccc(O)cc1", "Potency": "inconclusive: 48.6 µM [cytotoxic, partial curve] and active: 27.5 µM"}, {"smiles": "O=c1[nH]c2ccccc2n1C1CCN(CCCC(c2ccc(F)cc2)c2ccc(F)cc2)CC1", "Potency": "active: 17.4 µM and active: 16.9 µM"}, {"smiles": "C[C@]12Cc3cn[nH]c3C[C@@H]1CC[C@@H]1[C@@H]2CC[C@@]2(C)[C@H]1CC[C@]2(C)O", "Potency": "inconclusive: 21.3 µM [cytotoxic, partial curve]"}, {"smiles": "CCOC(=O)CC(SP(=S)(OC)OC)C(=O)OCC", "note": "(centres undefined)", "Potency": "inconclusive: 30.9 µM [rising, partial curve, poor fit]"}, {"smiles": "Clc1ccc(C(Cl)(Cl)Cl)c(Cl)c1", "Potency": "inconclusive: 55.3 µM [cytotoxic, single point]"}, {"smiles": "C=CCc1ccc(OC(=O)Cc2ccccc2)c(OC)c1", "Potency": "inconclusive: 1.95 µM [cytotoxic, single point]"}, {"smiles": "CCOC(=O)CC(=O)CCl", "Potency": "active: 43.6 µM"}, {"smiles": "Clc1ccccc1-c1ccccc1Cl", "Potency": "inconclusive: 70.2 µM [cytotoxic, single point]"}, {"smiles": "CCOc1cc(C(C)(C)C)ccc1C1COC(c2c(F)cccc2F)=N1", "note": "(centres undefined)", "Potency": "inconclusive: 7.47 µM [cytotoxic, partial curve]"}]}]}
